In the experiment the test system is mPer2Luc MEF. As to the kind of experiment: PER2::LUC luminescence relative to vehicle control (fold of vehicle); higher = higher PER2::LUC reporter signal. The following applies: 10 µM. Summed up: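 The value is PER2::LUC luminescence expressed as fold of vehicle control. Mouse embryonic fibroblasts carrying the mPer2Luc reporter were seeded at ~3000 cells per well in 384-well plates and grown in DMEM with 10% FBS at 37 °C and 5% CO2. Compounds from commercial libraries were added at 10 μM 48 h after seeding, and luminescence was read with the ONE-Glo luciferase assay system 24 h and 30 h after treatment, followed by an alamarBlue viability assay.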

The values below come from the supplement of paper PMC9334596.

Values joined by “and” are separate entries in the source; they are usually repeats but may differ in a detail not shown here. Identical values can stand only once. Over roughly 5,300 compounds, “PER2::LUC luminescence relative to vehicle control” has its median near 0.96; the highest 2% begin near 1.3. Some of the results follow.

On to `CCN1C[C@]2(C)CC[C@H](OC)[C@@]34C1[C@]1(OCO[C@@]15C[C@H](OC)[C@H]1C[C@]3(O)[C@@H]5[C@H]1OC)[C@@H](OC(C)=O)[C@H]24`, for which the “PER2::LUC luminescence” value runs as follows: (time after treatment 24 h) 1.01; (time after treatment 30 h) 1.05.
The matching figures for `CC(C)=CCOc1c2occc2cc2ccc(=O)oc12`: 1.07 and 1.1.
Regarding `CC(C)N(CCC(C(N)=O)(c1ccccc1)c1ccccn1)C(C)C` (stereo unspecified), the “PER2::LUC luminescence” value is, setting by setting: (time after treatment 24 h) 1.06 and 0.901; (time after treatment 30 h) 0.992 and 0.862.
As to `C[C@H](N)[C@H](O)c1ccc(O)c(O)c1`, the “PER2::LUC luminescence” value was 1.01 and 0.781 (time after treatment 24 h); 1.02 and 0.965 (time after treatment 30 h).
Turning to `N=C(N)NN`, the “PER2::LUC luminescence” value was 0.909 and 0.978 and 0.964 (time after treatment 24 h); 1.12 and 0.99 and 0.867 (time after treatment 30 h).
In the case of `CC(CCc1ccccc1)NC(C)C(O)c1ccc(O)cc1` (stereo unspecified), the “PER2::LUC luminescence” value was determined as 0.896 (time after treatment 24 h) and 0.948 (time after treatment 30 h).
As for `COc1cccc(C2(O)CCCCC2CN(C)C)c1` (stereo unspecified), the “PER2::LUC luminescence” value was 1.03 and 0.55 (time after treatment 24 h); 1.02 and 0.955 (time after treatment 30 h).
In the case of `CC(=O)OC1CN2CCC1CC2` (stereo unspecified), the “PER2::LUC luminescence” value is 1 and 1.07 (time after treatment 24 h); 1.08 and 1 (time after treatment 30 h).
As for `Cc1c(C(=O)c2cccc3ccccc23)c2cccc3c2n1[C@H](CN1CCOCC1)CO3`, the “PER2::LUC luminescence” value is, setting by setting: (time after treatment 24 h) 0.977; (time after treatment 30 h) 0.838.
In the same order, the values of `NC(=O)CN1C[C@H](O)CC1=O` are 1.04 and 0.988.
For the compound `O=C(O)CNC(=O)c1c(O)c2ccccc2n(Cc2ccccc2)c1=O`, the “PER2::LUC luminescence” value runs as follows: (time after treatment 24 h) 1; (time after treatment 30 h) 0.971.
In the same order, the values of `CCN(CC)C(=O)NC1C=C2c3cccc4[nH]cc(c34)CC2N(C)C1` (stereo unspecified) are 0.813 and 0.856.
For `c1ccc2nc(N3CCNCC3)ccc2c1`, the “PER2::LUC luminescence” value reads like this: (time after treatment 24 h) 0.463 and 0.642; (time after treatment 30 h) 0.845 and 0.652.
Turning to `C[N+](C)(C)CCCCCCCCCC[N+](C)(C)C`, the “PER2::LUC luminescence” value was 1.07 and 1.03 (time after treatment 24 h); 0.977 and 0.832 (time after treatment 30 h).
For the compound `C=C(C)c1cc2cc(C(C)=O)c(O)cc2o1`, the “PER2::LUC luminescence” value is 1.31 (time after treatment 24 h) and 1.39 (time after treatment 30 h).
In the same order, the values of `Cc1cc(OC(=O)N2CCCCC2)c(C(C)C)cc1[N+](C)(C)C` are 0.966 and 0.919.
In the same order, the values of `CC1C2Cc3ccc(O)cc3C1(C)CCN2CC1CC1` (single isomer, unassigned; (+)) are 0.923 and 0.817.
The matching figures for `C[C@]12CC[C@H](O)C[C@H]1CC[C@@H]1[C@@H]2CC[C@]2(C)[C@@](O)(c3ccoc3)CC[C@]12O`: 1.03 and 0.965.
Take `CN1C[C@H](C(=O)N[C@]2(C)O[C@@]3(O)[C@@H]4CCCN4C(=O)[C@H](Cc4ccccc4)N3C2=O)C[C@@H]2c3cccc4[nH]cc(c34)C[C@H]21`: the “PER2::LUC luminescence” value reads like this: (time after treatment 24 h) 0.791 and 0.71; (time after treatment 30 h) 0.733 and 0.71.
Turning to `O=C1NCN(c2ccccc2)C12CCN(CC1COc3ccccc3O1)CC2` (stereo unspecified), the “PER2::LUC luminescence” value is, setting by setting: (time after treatment 24 h) 1.07; (time after treatment 30 h) 0.997.
As for `C[N+]1(C)[C@@H]2CC[C@H]1C[C@@H](OC(=O)C(CO)c1ccccc1)C2` (stereo partly specified), the “PER2::LUC luminescence” value reads like this: (time after treatment 24 h) 1.1 and 1.04 and 0.958; (time after treatment 30 h) 0.994 and 1.02 and 0.907.
Turning to `C/C=C1/C[C@@H](C)[C@@](C)(O)C(=O)OCC2=CCN3CC[C@@H](OC1=O)[C@@H]23`, the “PER2::LUC luminescence” value was 1.08 (time after treatment 24 h) and 1.07 (time after treatment 30 h).
The matching figures for `CN1c2ccccc2C(NCCCCCCC(=O)O)c2ccc(Cl)cc2S1(=O)=O` (stereo unspecified): 1.05 and 1.09.
In the same order, the values of `COc1ccc2[nH]cc(CCNCc3ccc(Br)cc3)c2c1` are 0.772 and 0.692.
In the same order, the values of `Clc1cccc(N2CCNCC2)c1` are 0.821 and 0.77.
As for `NC(CCP(=O)(O)O)C(=O)O` (racemic), the “PER2::LUC luminescence” value (time after treatment 24 h) came to 1.05 and the “PER2::LUC luminescence” value (time after treatment 30 h) was determined as 0.951.
For the compound `COc1ccc(C(C)(C)C)cc1CN[C@H]1C2CCN(CC2)[C@H]1C(c1ccccc1)c1ccccc1`, the “PER2::LUC luminescence” value (time after treatment 24 h) is 0.868 and the “PER2::LUC luminescence” value (time after treatment 30 h) came out at 0.939.
In the same order, the values of `C#C[C@]1(O)CC[C@H]2[C@@H]3CCC4=Cc5nc6nc7ccccc7n6cc5C[C@]4(C)[C@H]3CC[C@@]21C` are 1.05 and 1.15.
The matching figures for `NCCc1cc(O)c(O)cc1O`: 0.91 and 0.95.
As to `CCNC(=O)C[C@@H]1N=C(c2ccc(Cl)cc2)c2cc(OC)ccc2-n2c(C)nnc21`, the “PER2::LUC luminescence” value is, setting by setting: (time after treatment 24 h) 0.153 and 0.159 and 0.137; (time after treatment 30 h) 0.196 and 0.173 and 0.128.
Take `C=CCN(C1=NCCN1)c1c(Cl)cccc1Cl`: the “PER2::LUC luminescence” value was 0.832 (time after treatment 24 h) and 0.787 (time after treatment 30 h).
Consider `O=P(O)(NCCCl)NCCCl`, for which the “PER2::LUC luminescence” value reads like this: (time after treatment 24 h) 1.02; (time after treatment 30 h) 1.08.
`O=C1C[C@@H]2OCC=C3CN4CC[C@]56c7ccccc7N1[C@H]5[C@H]2[C@H]3C[C@H]46`: the “PER2::LUC luminescence” value reads like this: (time after treatment 24 h) 0.981 and 0.867 and 0.844; (time after treatment 30 h) 0.831 and 0.943 and 0.963.
As for `N#Cc1nn(-c2c(Cl)cc(C(F)(F)F)cc2Cl)c(N)c1[S+]([O-])C(F)(F)F` (stereo unspecified), the “PER2::LUC luminescence” value by setting is: (time after treatment 24 h) 0.855; (time after treatment 30 h) 0.843.
As to `CC[C@@]1(O)C(=O)OCc2c1cc1n(c2=O)Cc2cc3ccccc3nc2-1`, the “PER2::LUC luminescence” value reads like this: (time after treatment 24 h) 0.767; (time after treatment 30 h) 0.821.
The matching figures for `CC1(N2CCC(n3c(C4CCCNC4)nc4ccccc43)CC2)CCCCCCC1` (stereo unspecified): 0.527 and 0.558.
In the same order, the values of `C[N+]1(C)CCc2cc3c(cc2C1C1OC(=O)c2c1ccc1c2OCO1)OCO3` (single isomer, unassigned; (-)) are 0.997 and 0.969.
The matching figures for `CNc1ccc(C(=O)CC(O)CCC(C)C2OC(=O)CC(O)CC(=O)CC(O)CC(O)CC(O)CC(O)CC3(O)CC(O)C(C(=O)OC)C(CC(O[C@@H]4O[C@H](C)[C@@H](O)[C@H](N)[C@@H]4O)/C=C/C=C/C=C/C=C/C=C/C=C/C=C/C2C)O3)cc1.COC(=O)C1C(O)CC2(O)CC(O)CC(O)CC(O)CC(O)CC(=O)CC(O)CC(=O)OC(C(C)CCC(O)CC(=O)c3ccc(N)cc3)C(C)/C=C/C=C/C=C/C=C/C=C/C=C/C=C/C(O[C@@H]3O[C@H](C)[C@@H](O)[C@H](N)[C@@H]3O)CC1O2` (stereo partly specified): 0.541 and 0.777.
